{"source": "ChEMBL document CHEMBL4888484", "about": "“Replenishing the malaria drug discovery pipeline: Screening and hit evaluation of the MMV Hit Generation Library 1 (HGL1) against asexual blood stage Plasmodium falciparum ,using a nano luciferase reporter read-out” (2022)", "note": "About 540 (0.36%) of roughly 150,000 compounds showed an effect of 50% or more. The list shows a part of the results.", "data": [{"system": "Plasmodium falciparum", "assay": "Primary screen in NF54 nanoGlo assay, in single point, at 2uM, 72h; a lower Z score goes with more inhibition", "format": "functional, Erythrocyte", "conditions": "timepoint 72 hour", "units": {"% Inhibition": "%"}, "values": [{"smiles": "Cn1nc(-c2ccncc2)cc1CNC(=O)c1ccc(Oc2ccccc2)cc1", "% Inhibition": -11, "Z score": 1.26}, {"smiles": "Cc1nc(-n2nc(C)c(CCC(=O)Nc3cccc(Cl)c3C)c2O)sc1C", "% Inhibition": -9, "Z score": 1.18}, {"smiles": "CCc1ccc(CN(C)Cc2ccncc2)o1", "% Inhibition": -11, "Z score": 1.56}, {"smiles": "Cc1nc(N)ncc1C(=O)N(C)CCc1nc2ccccc2[nH]1", "% Inhibition": -12, "Z score": 1.93}, {"smiles": "CC(C)[C@@H]1CN(C(=O)CCn2ccccc2=O)c2ccccc2N1", "% Inhibition": -21, "Z score": 1.76}, {"smiles": "N#CC1(C(N)=O)C(c2ccccc2)CC(=O)CC1c1ccccc1", "note": "(stereo not drawn)", "% Inhibition": -10, "Z score": 1.3}, {"smiles": "COc1ccc(CN(C(=O)c2ccoc2)c2ccncc2)cc1", "% Inhibition": -12, "Z score": 1.89}, {"smiles": "CC(=O)c1cnn(-c2cc(Oc3ccc(S(=O)(=O)c4ccccc4)cc3)nc(C)n2)c1C", "% Inhibition": -15, "Z score": 1.9}, {"smiles": "Cc1cnn(CCC(=O)N2CC[C@H](O)C[C@@H]2C)c1", "% Inhibition": -7, "Z score": 0.97}, {"smiles": "CC(=O)N1CCN(C(=O)C2Cc3cc(C(F)(F)F)ccc3N3CCN(Cc4ccccc4)CC23)CC1", "note": "(stereo not drawn)", "% Inhibition": 9, "Z score": -1.12}, {"smiles": "O=C(c1nn2c(c1Cl)N[C@@H](c1cccs1)C[C@H]2C(F)(F)F)N1CCN(c2ccc(F)cc2)CC1", "% Inhibition": -8, "Z score": 1.28}, {"smiles": "CCOc1ccc(Nc2c3ccccc3nc3ccccc23)cc1", "% Inhibition": 81, "Z score": -10.53}, {"smiles": "Cc1ccc(OCC(=O)N2N=C3CCCCC3C2(O)C(F)(F)F)c(C)c1", "note": "(stereo not drawn)", "% Inhibition": 4, "Z score": -0.45}, {"smiles": "Cc1cc2oc(-c3cc4c(cc3C)C(C)(C)[C@H](C)C4(C)C)c(CC(=O)O)c2c(=O)[nH]1", "% Inhibition": 2, "Z score": -0.26}, {"smiles": "CN(CC(=O)Nc1nsc2ccccc12)S(C)(=O)=O", "% Inhibition": -10, "Z score": 1.57}, {"smiles": "Cc1nc2ccc(S(=O)(=O)Nc3ccc(Cl)cc3)cc2nc1C", "% Inhibition": -5, "Z score": 0.68}, {"smiles": "Cc1cccc(N(C)S(=O)(=O)c2c(-c3ccccc3)csc2C(=O)Nc2ccc(F)c(F)c2)c1", "% Inhibition": -5, "Z score": 0.7}, {"smiles": "O=C(Cc1csc(-c2ccccc2)n1)N1CCOC[C@@H](CO)C1", "% Inhibition": -5, "Z score": 0.95}, {"smiles": "CCn1ccnc1CN1CCC[C@H](CCC(=O)N(C)C2CCN(C)CC2)C1", "% Inhibition": -2, "Z score": 0.26}, {"smiles": "O=C(CN1CCN(Cc2ccccc2)CC1)Nc1ccc2c(c1)CCNC2=O", "% Inhibition": -11, "Z score": 1.83}, {"smiles": "CC(C)Cn1cc(NCc2ccncc2)cn1", "% Inhibition": 2, "Z score": -0.19}, {"smiles": "FC(F)(F)c1cc(N2CCc3cncnc3C2)nc(-c2ccncc2)n1", "% Inhibition": 3, "Z score": -0.31}, {"smiles": "CCNC(=O)N1CCC2(CC1)N[C@@H](Cc1ccccc1)C(=O)N2Cc1ccc(F)cc1", "% Inhibition": -10, "Z score": 0.94}, {"smiles": "CCN(CC)C(=O)c1ccc(Cl)c(NC(=O)[C@@H]2C=CCN2)c1", "% Inhibition": -2, "Z score": 0.25}, {"smiles": "O=C(CCc1cc(O)no1)N1CCC[C@H](Cc2nc3ccccc3[nH]2)C1", "% Inhibition": -22, "Z score": 2.54}, {"smiles": "COc1ccc(CC(=O)Nc2cc(C(C)(C)C)nn2[C@H]2CCS(=O)(=O)C2)cc1", "% Inhibition": -15, "Z score": 2.87}, {"smiles": "CCN(C(=O)C1C(C=C(C)C)C1(C)C)C1CCS(=O)(=O)C1", "note": "(stereo not drawn)", "% Inhibition": -16, "Z score": 1.31}, {"smiles": "CNC(=O)N1CC[C@H](Cc2noc(-c3ccncc3)n2)C1", "% Inhibition": -7, "Z score": 0.86}, {"smiles": "Cc1ccc2nc(C(=O)N3CCC[C@H](N4CCCC4=O)CC3)ccc2c1", "% Inhibition": 8, "Z score": -1.15}, {"smiles": "Cc1ccc([C@H]2Nc3ccccc3C(=O)N2c2ccc3c(c2)OCO3)s1", "% Inhibition": -5, "Z score": 0.93}, {"smiles": "Cc1cc(-c2ccc(C(=O)N3CCNC[C@@H]3C)cc2)cnc1-n1cnnc1", "% Inhibition": -9, "Z score": 1.77}, {"smiles": "Cc1ccc(-n2nc(C(=O)NC3CC3)cc2C)cc1", "% Inhibition": 0, "Z score": -0.01}, {"smiles": "COc1cc(-c2cc(N)n(S(=O)(=O)c3cccc4nsnc34)n2)cc(OC)c1OC", "% Inhibition": -1, "Z score": 0.22}, {"smiles": "CN(CC1(c2ccccc2)CC1)C(=O)c1cc(C(=O)O)ccn1", "% Inhibition": 10, "Z score": -0.99}, {"smiles": "N#CCCN(C(=O)c1cccc(OC(F)F)c1)C1CCOCC1", "% Inhibition": -7, "Z score": 0.76}, {"smiles": "Cc1nnnn1Cc1nc(C(F)(F)F)cs1", "% Inhibition": 27, "Z score": -3.09}, {"smiles": "CCOC(=O)C(C)(C)c1csc(CN2C(=O)CCC2=O)n1", "% Inhibition": -4, "Z score": 0.69}, {"smiles": "C[C@@H](CNC(=O)N(C)Cc1cscn1)Oc1ccc(Cl)cc1", "% Inhibition": -4, "Z score": 0.47}, {"smiles": "COc1cc(CNc2ccc(Oc3ccccc3)cc2)cc(Cl)c1OCc1ccccc1Cl", "% Inhibition": 35, "Z score": -3.97}, {"smiles": "CN1N=C(C(=O)NOCc2ccccc2)CCC1=O", "% Inhibition": -3, "Z score": 0.43}, {"smiles": "CC(=O)N(C)c1ccccc1NC(=O)NCCc1c(F)cccc1F", "% Inhibition": -9, "Z score": 1.7}, {"smiles": "N#CCC(=O)Nc1nc(-c2ccc(Oc3ccccc3)cc2)cs1", "% Inhibition": 30, "Z score": -4.06}, {"smiles": "Nc1cc(Cl)cc(Cl)c1C(=O)O", "% Inhibition": 9, "Z score": -1.01}, {"smiles": "Cc1nc([C@H]2CCCNC2)n(-c2cccc(C)c2C)n1", "% Inhibition": -15, "Z score": 2.51}, {"smiles": "CCOc1cc2c(cc1OCC)[C@H](c1cc3ccccc3s1)NCC2", "% Inhibition": 34, "Z score": -3.83}, {"smiles": "O=C(CN1CCOC1=O)N1CCC[C@H](Oc2ncc(F)cn2)C1", "% Inhibition": -4, "Z score": 0.77}, {"smiles": "Cc1nonc1CN[C@@H](C)CN1CCOCC1", "% Inhibition": -15, "Z score": 2.15}, {"smiles": "Cc1ccc(NC(=O)CC(=O)N2CCCCCCCC2)c(C)c1", "% Inhibition": -7, "Z score": 1.33}, {"smiles": "CCN(Cc1ccc2occc2c1)[C@H]1CCOC(C)(C)C1", "% Inhibition": -12, "Z score": 2.48}, {"smiles": "CC(C)(F)C(=O)N1CCN(c2cncc3ccccc23)CC1", "% Inhibition": -16, "Z score": 1.63}, {"smiles": "COC(=O)[C@]1(NCc2ccn(C)n2)CCCN(Cc2ccccc2)C1", "% Inhibition": -11, "Z score": 0.93}, {"smiles": "CC(C)c1nccc(-c2c(-c3ccccc3)ncn2C[C@H]2CCCO2)n1", "% Inhibition": -16, "Z score": 2.22}, {"smiles": "CN(CCO)C(=O)Nc1cc(Cl)cc(Cl)c1", "% Inhibition": 4, "Z score": -0.53}, {"smiles": "CCn1c(C)nnc1CN[C@@H](C)c1cc(C)oc1C", "% Inhibition": -11, "Z score": 1.02}]}]}
